# Test results from article PMC4336329 (PLoS ONE, 2015).
# The whole screen tested about 310,000 compounds, of which about 14,000 (4.5%) showed an effect of 50% or more. Effects have a minus sign here. This is one part of the list.
# Biological target: human ether-à-go-go-related gene (hERG) potassium channel (human, UniProt Q12809)
# Test: primary screen, population patch clamp on CHO cells stably expressing hERG
# 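Note: peak tail current of the secondary pulse compared with the same well before compound.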
# human ether-à-go-go-related gene (hERG) potassium channel, sequence (Q12809 whole entry, looked up): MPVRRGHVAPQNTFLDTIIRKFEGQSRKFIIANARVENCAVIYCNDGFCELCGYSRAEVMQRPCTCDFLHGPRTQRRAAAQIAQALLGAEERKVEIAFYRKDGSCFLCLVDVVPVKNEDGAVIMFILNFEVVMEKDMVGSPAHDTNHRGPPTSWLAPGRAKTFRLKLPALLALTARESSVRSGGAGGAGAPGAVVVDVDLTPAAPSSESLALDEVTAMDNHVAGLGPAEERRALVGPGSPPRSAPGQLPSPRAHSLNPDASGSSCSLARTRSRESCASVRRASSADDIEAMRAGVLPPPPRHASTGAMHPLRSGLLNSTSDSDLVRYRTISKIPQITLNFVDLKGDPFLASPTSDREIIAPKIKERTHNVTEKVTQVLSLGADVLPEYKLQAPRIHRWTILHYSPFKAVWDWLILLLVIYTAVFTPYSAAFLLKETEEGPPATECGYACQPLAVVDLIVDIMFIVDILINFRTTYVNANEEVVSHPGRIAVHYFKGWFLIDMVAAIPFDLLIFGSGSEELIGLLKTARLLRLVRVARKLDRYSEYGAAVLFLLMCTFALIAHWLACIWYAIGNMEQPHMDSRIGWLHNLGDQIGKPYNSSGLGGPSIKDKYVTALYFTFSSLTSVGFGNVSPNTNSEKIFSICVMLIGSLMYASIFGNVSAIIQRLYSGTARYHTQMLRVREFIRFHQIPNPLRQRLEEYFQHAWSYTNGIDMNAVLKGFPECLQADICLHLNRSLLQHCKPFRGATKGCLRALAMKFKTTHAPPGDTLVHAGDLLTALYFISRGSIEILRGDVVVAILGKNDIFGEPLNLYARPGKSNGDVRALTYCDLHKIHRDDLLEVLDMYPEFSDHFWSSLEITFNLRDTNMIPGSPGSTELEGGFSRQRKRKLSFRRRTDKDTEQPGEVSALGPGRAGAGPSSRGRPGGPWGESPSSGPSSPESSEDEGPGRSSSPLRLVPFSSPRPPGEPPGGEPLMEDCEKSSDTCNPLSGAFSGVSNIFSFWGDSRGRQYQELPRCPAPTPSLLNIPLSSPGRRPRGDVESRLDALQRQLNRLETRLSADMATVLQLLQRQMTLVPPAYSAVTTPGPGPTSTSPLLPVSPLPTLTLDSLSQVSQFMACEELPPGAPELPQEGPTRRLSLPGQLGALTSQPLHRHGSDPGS
row,SMILES,"hERG current change (%, negative = inhibition) at 10uM"
1,CC(=O)Nc1ccc(NC(=O)COc2ccc(S(=O)(=O)N3CCCC3)cc2C)cc1,11.5%
2,CC(C)OCCCNC(=O)C(Cc1ccccc1)NS(=O)(=O)c1ccc2c(c1)CCC(=O)N2 (stereo not shown),14.5%
3,Cc1ccc2nc3c(cc2c1)c(NC(=O)C1CCCO1)nn3CC(C)C (stereo not shown),-7.69%
4,COc1ccc(Nc2nnc(-c3ccc(O)cc3)c3ccccc23)cc1,-64.8%
5,COC(=O)C(C)Sc1nc2c([nH]c3ccccc32)c(=O)n1C (stereo not shown),-18.5%
6,Cc1ccc2c(c1)N(CC(=O)N1CCCCC1c1cccnc1)C(=O)CO2 (stereo not shown),-15.7%
7,OCC1(CCOc2ccccc2)CCN(Cc2ccncc2)CC1,-41.5%
8,CCOC(=O)Cc1csc(NC(=O)CSc2nnc(-c3ccc(C)cc3)o2)n1,5.26%
9,CCCCC(=O)Nc1nc(C)c(-c2csc(Nc3ccccc3OC)n2)s1,-0.735%
10,Nc1nn(-c2ccccc2)nc1C(=O)OCc1ccccc1F,13%
11,O=C(OCc1nc2ccccc2[n+]([O-])c1C(=O)c1ccccc1)c1ccco1,6.61%
12,CN(Cc1ccccc1)C(=O)COC(=O)CNS(=O)(=O)c1ccc2ccccc2c1,-31.5%
13,COCCNCCOc1ccccc1-c1ccccc1.O=C(O)C(=O)O,-9.52%
14,COC(=O)c1c(NC(=O)C(=O)N2CCOCC2)sc2c1CCCC2,7.47%
15,O=C(/C=C/c1c(Cl)nc2ccccn12)N1CCCCC1,2.54%
16,CCOc1ccc(OCCCC(=O)NCCOc2ccccc2OC)cc1,-43.9%
17,Cc1cc(C)cc(-n2c(C)cc(/C=N\NC(=O)COc3cccc4cccnc34)c2C)c1,22.3%
18,Cc1cc(NC(=O)c2ccc(Cn3nc(C)c(Br)c3C)o2)no1,0.704%
19,Cc1ccc(SCC(=O)c2ccc[nH]2)cc1,-8.95%
20,COC(=O)C(Cc1ccc(OC(=O)c2ccccc2Cl)cc1)N1Cc2ccccc2C1=O (stereo not shown),0.977%
21,O=C(Nc1ccccc1N1CCCC1)c1ccccc1F,-3.26%
22,COc1ccc(S(=O)(=O)N2CCC(C(=O)Nc3cccc(C(C)=O)c3)CC2)cc1C,-7.61%

row,SMILES,"hERG current change (%, negative = inhibition) at 10uM"
1,c1ccc(Nc2nnc(SCc3cccc4ccccc34)s2)cc1,12.5%
2,O=C(Nc1ccc(Br)cc1)N1CCCC(O)C1 (stereo not shown),6.54%
3,CCSc1nnc(NC(=O)CSc2nnc(-c3c[nH]c4ccccc34)n2CC)s1,12.5%
4,Cc1ccc(NC(=O)CCn2cnc3ccccc3c2=O)c(C)c1,6.65%
5,CCOC(=O)c1c(C)[nH]c2cc(Br)c(O)cc12,14.6%
6,CC(=O)N1CCN(CC(=O)Nc2ccc(C)c(S(=O)(=O)N(C)C)c2)CC1,17.7%
7,CC(Sc1nnc(-c2ccccc2F)n1C1CC1)C(N)=O (stereo not shown),10.5%
8,O=C(Cn1ccc(NC(=O)OCc2ccccc2)nc1=O)NCc1ccc2[nH]ccc2c1,2.18%
9,Cc1ccc(S(=O)(=O)N(C)c2ccc(OCC(=O)N3CCCC(C(F)(F)F)C3)cc2)cc1 (stereo not shown),-39.9%
10,C/C(=N\NC(=O)c1cccc(N/N=C(\C)c2ccc([N+](=O)[O-])cc2)c1)c1ccc([N+](=O)[O-])cc1,1.39%
11,O=C(O)C(=O)O.OC(CNC1CCCCCC1)COc1cccc2ccccc12 (stereo not shown),-22.3%
12,COc1cccc(NC(=O)CN2C(=O)COc3ccc(S(=O)(=O)N4CCOCC4)cc32)c1,15.6%
13,CC(C)(C)CN1CCNC(=O)C1CC(=O)N1CCOc2ccccc2C1 (stereo not shown),22.3%
14,Cc1csc(=O)n1CC(=O)OCC(=O)Nc1cc(Cl)ccc1[N+](=O)[O-],-17.8%
15,N#Cc1cccc(NC(=O)c2cncn2-c2ccccc2)c1,12.4%
16,Cc1ccc(C2CC(c3ccccc3)n3ncnc3N2)cc1 (stereo not shown),-1.18%
17,COC(=O)C(C)Sc1nnc(-c2ccncc2)o1 (stereo not shown),-28.8%
18,Nc1ccc(C(=O)CC(=O)Nc2ccc(Cl)cc2)cc1,-3.34%
19,COc1ccc(S(=O)(=O)N2CCN(CC(=O)Nc3ccccc3Cl)CC2)cc1,-1.6%
20,COc1ccc(C)cc1NC(=O)C(Sc1nnc(Nc2ccccc2F)s1)c1ccccc1 (stereo not shown),11.1%
21,O=C(CCc1ccccc1F)N1CCN(c2ccc(C(F)(F)F)cn2)CC1,18.2%
22,Cc1c(Cc2c(C)n(C)n(-c3ccccc3)c2=O)c(=O)n(-c2ccccc2)n1C,3.53%

row,SMILES,"hERG current change (%, negative = inhibition) at 10uM"
1,COc1ccc(CN2C(=O)CN=C2Nc2ccc(C)cc2C)cc1.Cl,-13.1%
2,O=C(c1ccc(S(=O)(=O)c2ccc(Cl)cc2)cc1)N1CCOCC1,-21.9%
3,Nc1cc(Cl)ccc1N1C(=O)CCC1=O,20.2%
4,CCCn1c(C)cc(C(=O)COC(=O)c2ccc(Cl)c(S(=O)(=O)N3CCCC3)c2)c1C,9.17%
5,CC(C)Cn1c(-c2csc(C(C)C)c2)n[nH]c1=S,14.4%
6,CC1(C)Cc2nc3oc4c(NCc5ccccc5)ncnc4c3cc2CO1,-10.7%
7,COc1ccc(CN2C(=O)c3ccccc3C(/C=N/OCc3ccc(Cl)cc3)C2=O)cc1 (stereo not shown),6.39%
8,Cc1cc(O)c(C(=O)/C=C/c2ccccc2Br)c(=O)o1,26%
9,O=C(CCCN1C(=O)CCC1=O)Nc1ccc(Cl)c(C(F)(F)F)c1,-18.8%
10,CC(C)CC(=O)Nc1ccc(C(=O)Cn2c(=O)oc3ccccc32)cc1,7.47%
11,COc1ccccc1NC(=O)c1ccc(Cl)c(S(=O)(=O)NCc2ccco2)c1,-37.7%
12,O=C1c2ccccc2S(=O)(=O)N1Cc1ccccc1[N+](=O)[O-],16.3%
13,O=C(CSc1nnc(-c2ccccc2)o1)c1ccc2c(c1)OCCO2,3.15%
14,CCN(CC#CCC(O)(c1ccccc1)C1CCCC1)C(C)C.Cl (stereo not shown),-18.9%
15,CC(C)c1ccc(/C=N/Nc2cc(N3CCOCC3)nc(N3CCOCC3)n2)cc1,-3.41%
16,COc1cc(CNCCN(C)C)c(Br)cc1OCC(=O)NCc1ccccc1,-29.2%
17,COC(=O)c1ccccc1NC(=O)C1=CC(c2cccs2)=NS(=O)(=O)N1C,-8.31%
18,CC(C)C[C@H](NC(=O)c1nc[nH]c1C(=O)NC1CCN(C(=O)OC(C)(C)C)CC1)C(=O)OCc1ccccc1,3.48%
19,COCCCNS(=O)(=O)c1ccccc1,0.287%
20,O=C(/C=C/NNC(=O)c1cccc(Br)c1)c1cccc(Br)c1,15.6%
21,CCOC(=O)c1cccc(NC(=O)CSc2nc3cccnc3n2C)c1,-37.8%
22,Cc1ccc(C(=O)/C=C/c2ccco2)c(O)c1,12.6%

row,SMILES,"hERG current change (%, negative = inhibition) at 10uM"
1,Cc1ccc(C(C(=O)NC2CCCCC2)N(CC2CCCO2)C(=O)CNC(=O)c2ccco2)cc1 (stereo not shown),-19.1%
2,CCOC(=O)c1c(C)[nH]c(C(=O)COC(=O)COc2ccccc2C=O)c1C,-15.7%
3,Cc1csc(/C(C#N)=N/O)n1,10.2%
4,CCC(C)c1ccccc1NC(=O)c1cc(C)no1 (stereo not shown),25.8%
5,O=C(O)c1c2c(nc3ccccc13)/C(=C/c1c(F)cccc1F)CCC2,17.3%
6,CCN(CC)S(=O)(=O)c1ccc(N2CCCC2)c(NS(=O)(=O)c2ccccc2)c1,-7.76%
7,CC(C)(O)c1nnn(-c2ccccc2)c1C(F)(F)F,8.31%
8,Cc1cccc(N2CCN(C(=O)CN3C(=O)C4CC=CCC4C3=O)CC2)c1C (stereo not shown),12.3%
9,COc1ccc(/C(C)=N/NC(=O)CNC(=O)c2ccncc2)c(OC)c1,3.47%
10,O=S(=O)(c1ccc(=S)[nH]c1)N1CCCCCC1,13.4%
11,Cc1sc2ncnc(N3CCOCC3)c2c1C,-13.7%
12,Cc1c(C(=O)NCc2ccc(F)cc2)oc2ccc(S(=O)(=O)N3CCOCC3)cc12,1.64%
13,c1ccc(C[C@H]2CN=C(Nc3ccccc3)N2CC2CCC2)cc1,-63%
14,COc1ccc(-n2c(=O)c3c4c(sc3n3c(=S)[nH]nc23)CCC4)cc1,14%
15,CCC1(c2ccccc2)NC(=O)N(CC(=O)NCc2ccc(F)cc2)C1=O (stereo not shown),18.7%
16,O=C(Nc1cccc2c1CCCC2)c1ccc(Cl)c([N+](=O)[O-])c1,5.81%
17,Cc1nc(CCl)cc(=O)[nH]1,7.38%
18,COc1ccc2c(C)cc(N3CCN(Cc4ccccc4)CC3)nc2c1,-29.6%
19,CCOC(=O)c1c(NC(=O)CSc2nnc(-c3c[nH]c4ccccc34)n2CCOC)sc2c1CCCC2,12.7%
20,O=C(CCc1ccc(S(=O)(=O)NC2CCCCC2)cc1)Nc1ccccc1,14.6%
21,Cc1cc(COc2ccccc2O)on1,10.6%
22,CN(C)S(=O)(=O)N(CC(=O)Nc1cccc(F)c1)c1ccccc1,-7.72%
